EP4685153A1 (priority 2023, dated 2024)
Like-named read-outs stand apart in the source and are kept apart here. Residues, ends and D or L forms follow the SMILES beside them. *: point of attachment. Succinyl(4-O-cholesteryl) = CC(C)CCC[C@@H](C)[C@H]1CC[C@H]2[C@@H]3CC=C4C[C@@H](OC(=O)CCC(=O)*)CC[C@]4(C)[C@H]3CC[C@]12C

Tests used:
[1] = tested on: replicative HIV-1 strain 89.6; conditions: for inhibitory activity higher than that of the T20, 89.6: TZM-bl cells, versus T20; for IC50: replicative strain 89.6, 48 h
[2] = tested on: replicative HIV-1 strain 89.6; conditions: for inhibitory activity higher than that of the T20, 89.6: MT-4 cells, versus T20; for IC50: replicative strain 89.6
Description: (§1) The cells were further washed once with RPMI-1640 culture medium at 200 µl/well, and then RPMI-1640 complete culture medium at 200 µl/well was add to culture the cells. • (3) On the fourth day, the 96-well plate was centrifuged at room temperature at 200 g for 5 min, and the supernatant was taken at 30 µl/well and transferred into a new 96-well plate, to which 1% Triton-X100 solution was added at 120 µl/well for inactivating the viruses. Positive control wells and the initial concentration were used for P24 antigen quantification to determine the dilution factor.. The P24 antigen quantification was performed according to the operating method as described in the specification of the kit, using a 96-well microplate reader for measurement. Then, each culture supernatant was diluted to an appropriate concentration to conduct the P24 antigen quantitative assay. The inhibition curve for each drug was fitted by using the four-parameter logistic equation in non-linear regression analysis and the IC50 values were calculated.

[3] = tested on: replicative HIV-1 strain LAI.2; conditions: for inhibitory activity higher than that of the T20, LAI.2: MT-4 cells, versus T20
Description: as §1

[4] = tested on: replicative HIV-1 strain SG3.1; conditions: for inhibitory activity higher than that of the T20, SG3.1: MT-4 cells, versus T20
Description: as §1

Compound	inhibitory activity higher than that of the T20, 89.6 [1] [folds]	IC50 [1] [nM]	inhibitory activity higher than that of the T20, 89.6 [2] [folds]	IC50 [2] [nM]	inhibitory activity higher than that of the T20, LAI.2 [3] [folds]	inhibitory activity higher than that of the T20, SG3.1 [4] [folds]	IC50 ([3]; replicative strain LAI.2) [nM]	IC50 ([4]; replicative strain SG3.1) [nM]
CC[C@H](C)[C@H](NC(=O)[C@H](CCCCN)NC(=O)[C@H](CCCCN)NC(=O)[C@H](CCC(=O)O)NC(=O)[C@H](CC(C)C)NC(=O)[C@H](CCC(=O)O)NC(=O)[C@H](CCC(=O)O)NC(=O)[C@H](CC(C)C)NC(=O)[C@H](CCC(=O)O)NC(=O)[C@H](CCCCN)NC(=O)[C@H](CCC(=O)O)NC(=O)[C@H](Cc1ccc(O)cc1)NC(=O)[C@H](CCC(=O)O)NC(=O)[C@H](CCC(=O)O)NC(=O)[C@H](Cc1ccc(O)cc1)NC(=O)[C@H](CCC(=O)O)NC(C)=O)C(=O)N[C@@H](CCC(=O)O)C(=O)N[C@@H](CCC(=O)O)C(=O)N[C@@H](CC(C)C)C(=O)N[C@@H](CC(C)C)C(=O)N[C@@H](CCCCN)C(=O)N[C@@H](CCCCN)C(=O)N[C@@H](C)C(=O)N[C@@H](CCC(=O)O)C(=O)N[C@@H](CCC(=O)O)C(=O)N[C@@H](CCC(N)=O)C(=O)N[C@@H](CCC(N)=O)C(=O)N[C@@H](CCCCN)C(=O)N[C@@H](CCCCN)C(=O)N[C@@H](CC(N)=O)C(=O)N[C@@H](CCC(=O)O)C(=O)N[C@@H](C)C(=O)N[C@@H](C)C(=O)N[C@@H](C)C(=O)N[C@@H](CCCCN)C(=O)N[C@@H](CCCCNC(=O)CCC(=O)O[C@H]1CC[C@@]2(C)C(=CC[C@H]3[C@@H]4CC[C@H]([C@H](C)CCCC(C)C)[C@@]4(C)CC[C@@H]32)C1)C(N)=O [LP-127] (Ac-EYEEYEKELEELEKKIEELLKKAEEQQKKNEAAAKK(Succinyl(4-O-cholesteryl))-NH2)	1743	0.00909	3311	0.00145	2762	1643		
CC[C@H](C)[C@H](NC(=O)[C@H](CCCCN)NC(=O)[C@H](CCCCN)NC(=O)[C@H](CCC(=O)O)NC(=O)[C@H](CC(C)C)NC(=O)[C@H](CCC(=O)O)NC(=O)[C@H](CCC(=O)O)NC(=O)[C@H](CC(C)C)NC(=O)[C@H](CCC(=O)O)NC(=O)[C@H](CCCCN)NC(=O)[C@H](CCC(=O)O)NC(=O)[C@H](Cc1ccc(O)cc1)NC(=O)[C@H](CCC(=O)O)NC(C)=O)C(=O)N[C@@H](CCC(=O)O)C(=O)N[C@@H](CCC(=O)O)C(=O)N[C@@H](CC(C)C)C(=O)N[C@@H](CC(C)C)C(=O)N[C@@H](CCCCN)C(=O)N[C@@H](CCCCN)C(=O)N[C@@H](C)C(=O)N[C@@H](CCC(=O)O)C(=O)N[C@@H](CCC(=O)O)C(=O)N[C@@H](CCC(N)=O)C(=O)N[C@@H](CCC(N)=O)C(=O)N[C@@H](CCCCN)C(=O)N[C@@H](CCCCN)C(=O)N[C@@H](CC(N)=O)C(=O)N[C@@H](CCC(=O)O)C(=O)N[C@@H](C)C(=O)N[C@@H](C)C(=O)N[C@@H](C)C(=O)N[C@@H](CCCCN)C(=O)N[C@@H](CCCCNC(=O)CCC(=O)O[C@H]1CC[C@@]2(C)C(=CC[C@H]3[C@@H]4CC[C@H]([C@H](C)CCCC(C)C)[C@@]4(C)CC[C@@H]32)C1)C(N)=O [LP-128] (Ac-EYEKELEELEKKIEELLKKAEEQQKKNEAAAKK(Succinyl(4-O-cholesteryl))-NH2)	1851	0.00856	5785		9322	2834		
Enfuvirtide		15.8		4.8			0.746	1.13
